“And” between values parts separate entries of the source, which are not always exact repeats. Identical values can stand only once. Hit rate of the full screen: of about 400,000 compounds, about 2,200 (0.55%) were called active. Inconclusive results, whose numbers are uncertain, are shown with a selection of clear calls. The call rests on the fitted dose curve; in most records, active means well fitted inhibition curve with a large enough effect; inconclusive means small, poorly fitted or top-dose-only effect, or another doubt; inactive means no such curve, though single readings can be large or run the other way. A potency beside an inconclusive call is a rough fit, not a confirmed value.
target: DNA polymerase kappa (Homo sapiens) (UniProt Q9UBT6); test: qHTS for Inhibitors of Polymerase Kappa; conditions: purified Pol kappa, fluorescent DNA synthesis assay, 10 min; series mostly up to 107 µM; activity, negative = inhibition: at the top concentration
Procedure, shortened: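 Kinetic fluorescence screen: compound preincubated 15 min RT with 10 nM enzyme; 50 nM substrate (final) initiates; reads at 0/10 min.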
On the % scale 0 is the no-effect control and ±100 the full control effect; potency means the concentration at half of the fitted maximal effect; tags describe the fitted curve by direction and shape.

Chain of UniProt Q9UBT6 (Q9UBT6 whole entry, looked up): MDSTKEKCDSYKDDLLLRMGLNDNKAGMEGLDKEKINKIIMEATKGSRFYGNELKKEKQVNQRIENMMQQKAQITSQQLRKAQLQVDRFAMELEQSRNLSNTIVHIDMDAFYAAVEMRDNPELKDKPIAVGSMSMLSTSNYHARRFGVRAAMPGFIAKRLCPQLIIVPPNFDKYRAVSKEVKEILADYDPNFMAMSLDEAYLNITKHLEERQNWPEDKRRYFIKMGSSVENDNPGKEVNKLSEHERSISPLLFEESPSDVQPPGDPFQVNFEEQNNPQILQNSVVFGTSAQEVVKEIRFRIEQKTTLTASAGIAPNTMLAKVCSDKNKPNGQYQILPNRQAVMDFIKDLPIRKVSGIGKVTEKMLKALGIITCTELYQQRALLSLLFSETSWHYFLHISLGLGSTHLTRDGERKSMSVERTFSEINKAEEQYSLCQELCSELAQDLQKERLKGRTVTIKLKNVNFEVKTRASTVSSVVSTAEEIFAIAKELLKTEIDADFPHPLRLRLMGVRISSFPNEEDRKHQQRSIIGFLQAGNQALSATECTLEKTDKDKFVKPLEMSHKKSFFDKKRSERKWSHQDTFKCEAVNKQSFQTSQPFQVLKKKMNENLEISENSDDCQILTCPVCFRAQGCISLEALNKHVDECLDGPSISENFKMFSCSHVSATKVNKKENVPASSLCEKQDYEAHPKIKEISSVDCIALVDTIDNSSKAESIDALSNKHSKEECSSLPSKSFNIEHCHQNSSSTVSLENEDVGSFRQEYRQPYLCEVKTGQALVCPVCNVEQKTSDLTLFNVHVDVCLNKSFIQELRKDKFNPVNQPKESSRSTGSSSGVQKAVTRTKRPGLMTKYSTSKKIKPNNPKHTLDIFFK

| SMILES | Potency | activity, negative = inhibition |
| --- | --- | --- |
| O=C(O)c1ccccc1C(=O)c1ccc2oc(=O)[nH]c2c1 | inconclusive: 79.4 µM [inhibitor, partial curve] |  |
| COc1ccc(CN2CC(=O)N(c3ccc(C)c(C)c3)C2=S)cc1OC | inconclusive: 100 µM [inhibitor, single point] |  |
| Cc1ccc(NC(=O)C2CCCN(S(=O)(=O)c3cn(C(C)C)cn3)C2)c(C)c1 (stereo unspecified) |  | inactive: 0.502% [at 60.1 µM] |
| CC(=O)Nc1cc(C(=O)CSc2nnc(C3CC3)n2C2CC2)ccc1O | active: 35.5 µM |  |
| COc1ccc(C2CC(=O)N3CN(c4ccccc4F)CSC3=C2C#N)cc1OC (stereo unspecified) | inconclusive: 50.1 µM [inhibitor, partial curve, poor fit] |  |
| COc1ccccc1C=NN=Cc1ccccc1OC | inconclusive: 89.1 µM [inhibitor, single point] |  |
| O=C(Nc1cccc(Oc2ccc(C(=O)O)c(C(=O)O)c2)c1)c1ccc(-c2ccccc2)cc1 | active: 89.1 µM |  |
| COc1ccc(C(C)NC(=O)c2ccc([N+](=O)[O-])cc2)cc1OC (stereo unspecified) | inconclusive: 89.1 µM [inhibitor, single point] |  |
| O=C(O)CCCNc1cc(N2CCN(C3CCCCC3)CC2)c2noc3c2c1C(=O)c1ccccc1-3 | inconclusive: 79.4 µM [inhibitor, partial curve, poor fit] |  |
| CCCS(=O)(=O)N1CC(=O)N(c2cc(C)ccc2C)C(C)(C(=O)NC2CCCCCC2)C1 (stereo unspecified) |  | inactive: -14% |
| O=C(O)c1ccc(/C=C2\SC(=S)N(NC(=O)c3ccccc3[N+](=O)[O-])C2=O)cc1 | inconclusive: 89.1 µM [inhibitor, single point] |  |
| O=C1C=C(O)c2cccc(O)c2C1=O | inconclusive: 79.4 µM [inhibitor, partial curve, poor fit] |  |
| CCOC(=O)/C=C/C(=O)Nc1ccc(S(=O)(=O)Nc2nccs2)cc1 |  | inactive: -38.5% |
| O=[N+]([O-])c1ccccc1NC(=S)N/N=C/c1ccc(O)c(O)c1 | active: 20 µM |  |
| CCc1cc2c(=O)n(Cc3ccco3)c(SCC(=O)N(C)C3CCS(=O)(=O)C3)nc2s1 (stereo unspecified) | inconclusive: 89.1 µM [inhibitor, partial curve, poor fit] |  |
| Cc1ccc(CN(C(=O)c2ccccc2F)c2ccccn2)o1 | inconclusive: 100 µM [inhibitor, single point] |  |
| Cc1nc2ccccc2n2c(O)c(CC(=O)O)cc12 | inconclusive: 89.1 µM [inhibitor, single point] |  |
| Nc1ccc(S(=O)(=O)Nc2ccc(Cl)nn2)cc1 | inconclusive: 89.1 µM [inhibitor, partial curve, poor fit] |  |
| N#Cc1ccc(NCCNCC(=O)N2N=CCC2C#N)nc1 (stereo unspecified) |  | inactive: 1.73% [at 60.1 µM] |
| COC(=O)C1=C(C)NC(=O)NC1c1ccc(-c2ccc(Cl)cc2)o1 (stereo unspecified) |  | inactive: -10.6% |
| Cc1ccc2c(c1)c(CC(NC(=O)c1ccccc1Oc1ccccc1)C(=O)O)cn2C(=O)OCc1ccccc1 (stereo unspecified) | inconclusive: 29.9 µM [inhibitor, single point] |  |
| Cc1ccc(C)c(/C(O)=C2/C(=O)C(=O)N(CCN3CCOCC3)C2c2ccco2)c1 (stereo unspecified) | inconclusive: 50.1 µM [inhibitor, partial curve, poor fit] |  |

| SMILES | Potency | activity, negative = inhibition |
| --- | --- | --- |
| CCN1CCN(C2=C(NS(=O)(=O)c3ccc(NC(C)=O)cc3)C(=O)c3ccccc3C2=O)CC1 |  | inactive: 0.749% |
| Cc1nc(N=Nc2ccc(C(=O)O)cc2)c(COP(=O)(O)O)c(C=O)c1O | inconclusive: 37.7 µM [inhibitor, single point] |  |
| CN1CCN(c2ccc(Nc3c4ccccc4nc4ccccc34)cc2)CC1 | active: 18.9 µM |  |
| Cc1cc(CNC(=O)c2cccc3c2C(=O)c2ccc(-c4ccc(F)cc4OCc4ccccc4)cc2S3(=O)=O)c(C(F)(F)F)o1 | active: 79.4 µM |  |
| COC(=O)/C=C1\S/C(=N\N=C\CC(=O)OC)NC1=O | active: 39.8 µM |  |
| O=C1CCN(Cc2ccccc2)CCN1CCSc1ccccc1 | inconclusive: 89.1 µM [inhibitor, single point] |  |
| COc1cc2ccccc2cc1C(=O)Nc1ccc(O)cc1 |  | inactive: -6.01% |
| Cn1cc(O)nc1NC(=O)Nc1cccc(Cl)c1 |  | inactive: 7.38% [at 19.4 µM] |
| Cc1ccc(C)c(N(CC(=O)NCCSCc2ccco2)S(C)(=O)=O)c1 | active: 79.4 µM |  |
| Nc1cccc2cc(S(=O)(=O)O)ccc12 | active: 10 µM |  |
| COc1ccc(/C=N/NC(N)=S)cc1OC(=O)c1cccc2ccccc12 |  | inactive: -9.95% |
| O=C1CCCC(O)=C1N=Nc1ccc2ncsc2c1 | inconclusive: 56.2 µM [inhibitor, partial curve, poor fit] |  |
| COC(=O)c1c(NC(=O)CCCOc2ccc(C)cc2)sc2c1C(C(=O)OC)CC2 (stereo unspecified) | inconclusive: 89.1 µM [inhibitor, partial curve, poor fit] |  |
| CCc1ccc(C(=O)NNC(=O)CC2OC(=O)c3ccccc32)cc1 (stereo unspecified) | inconclusive: 89.1 µM [inhibitor, single point] |  |
| COC(=O)c1ccc(CSc2nc3scc(-c4cccs4)c3c(=O)[nH]2)o1 | inconclusive: 22.4 µM [inhibitor, full curve] |  |
| O=C1NC(=S)S/C1=C\c1cc(Cl)cc(Cl)c1O | inconclusive: 50.1 µM [inhibitor, partial curve] |  |
| COc1ccc(CCN2CC(C(=O)NCCc3ccc(C)cc3)CC2=O)cc1OC (stereo unspecified) | inactive and inconclusive: 100 µM [inhibitor, single point] |  |
| C=C1c2c(Cl)ccc(O)c2C(O)=C2C(=O)[C@]3(O)C(O)=C(C(N)=O)C(=O)[C@@H](N(C)C)[C@@H]3[C@@H](O)C12 (stereo partly specified) | active: 3.98 µM |  |
| Cc1ccc(SCC(=O)NN=C2CCN(C)CC2)cc1 | inconclusive: 89.1 µM [inhibitor, single point] |  |
| C=C1c2cccc(O)c2C(O)=C2C(=O)[C@]3(O)C(O)=C(C(N)=O)C(=O)C(N(C)C)C3C(O)C12 (stereo partly specified) | active: 3.98 µM |  |
| Nc1c(C(=O)NC2CC2)sc2nc3c(c(-c4ccco4)c12)CC/C3=C/c1ccco1 | active: 0.708 µM |  |
| CCc1cc(=O)oc2c(CN3CCN(C)CC3)c(O)c(Cl)cc12 |  | inactive: -15.7% |

| SMILES | Potency | activity, negative = inhibition |
| --- | --- | --- |
| COc1ccc(C2=NOC3(CC(=O)N(c4ccc(F)cc4)C3=O)C2)c(OC)c1 (stereo unspecified) | inconclusive: 89.1 µM [inhibitor, partial curve, poor fit] |  |
| Cc1nc(-c2ccccc2)sc1-c1ccc(SCC(=O)Nc2ccc(F)cc2F)nn1 | inconclusive: 100 µM [inhibitor, single point] |  |
| CCC(=O)Nc1sc2c(c1C#N)CCC2 |  | inactive: 1.98% |
| CC(=O)OCOC(=O)CN(CC(=O)OCOC(C)=O)c1ccccc1OCCOc1ccccc1N(CC(=O)OCOC(C)=O)CC(=O)OCOC(C)=O | inconclusive: 8.91 µM [inhibitor, single point] |  |
| CC(=O)c1cccc(NS(=O)(=O)c2cc(OCC(N)=O)c(C)cc2Cl)c1 |  | inactive: -0.689% |
| O=C(COC(=O)/C=C/c1ccco1)Nc1ncc(Cl)cc1Cl | inconclusive: 89.1 µM [inhibitor, single point] |  |
| N#Cc1ccccc1NC(=O)c1cc(=O)c2ccccc2o1 | inconclusive: 89.1 µM [inhibitor, single point] |  |
| Cc1ccc(NC(=O)CN(C)C(=O)c2cc(-c3ccco3)nc3ccccc23)cc1 | active: 50.1 µM |  |
| CC(Sc1oc(-c2ccco2)nc1S(=O)(=O)c1ccc(Br)cc1)c1ccccc1 (stereo unspecified) | inconclusive: 89.1 µM [inhibitor, partial curve, poor fit] |  |
| CC1(N2CCOCC2)CC2(O)C(=[N+]1[O-])CCc1c2no[n+]1[O-] (stereo unspecified) | inconclusive: 56.2 µM [inhibitor, partial curve, poor fit] |  |
| O=C(COC(=O)c1ccc(NS(=O)(=O)c2cccs2)cc1)NCc1ccco1 | active: 31.6 µM |  |
| COc1ccc2cc3cc(C(=O)NCc4ccc5c(c4)OCO5)oc3nc2c1 | inconclusive: 89.1 µM [inhibitor, single point] |  |
| Cc1ccoc1C(=O)NCc1occc1C(=O)O | inconclusive: 79.4 µM [inhibitor, single point] |  |
| COc1ccc(O)c(/C=N/NC(=O)c2c(C)nnn2-c2nonc2N)c1 | inconclusive: 89.1 µM [inhibitor, partial curve, poor fit] |  |
| CC1=NN(c2nc(-c3ccc(Cl)cc3)cs2)C(=O)C1 | active: 50.1 µM |  |
| O=C(NCC(c1cccs1)N1CCOCC1)C1CCN(S(=O)(=O)c2cc(Cl)ccc2Cl)CC1 (stereo unspecified) | inconclusive: 100 µM [inhibitor, single point] |  |
| O=C(NC1CC1)c1cccc2c1C(=O)c1ccc(N3CCC(Cc4ccccc4)CC3)cc1S2(=O)=O | inconclusive: 89.1 µM [inhibitor, partial curve, poor fit] |  |
| O=c1c(OC2OC(CO)C(O)C(O)C2OC2OC(CO)C(O)C(O)C2OC2OC(CO)C(O)C(O)C2O)c(-c2ccc(O)c(O)c2)oc2cc(O)cc(O)c12 (stereo unspecified) | active: 56.2 µM |  |
| CC(NS(=O)(=O)c1ccccc1)C(=O)NCc1ccco1 (stereo unspecified) | inconclusive: 100 µM [inhibitor, single point] |  |
| CC(C)=CCC12Oc3cc(O)ccc3C1(O)Oc1cc(O)c([C@H]3C=C(C)CC(c4ccc(O)cc4O)[C@H]3C(=O)c3ccc(O)cc3O)c(O)c1C2=O (stereo partly specified) | inconclusive: 89.1 µM [inhibitor, single point] |  |
| COc1cc(C(c2c(C(=O)O)[nH]c3ccccc23)c2c(C(=O)O)[nH]c3ccccc23)ccc1OCc1ccccc1 | inconclusive: 56.2 µM [inhibitor, partial curve, poor fit] |  |
| CC(C)c1c(O)ccc2c1CCC1C(C)(C)CCC[C@@]21C (stereo partly specified) | inconclusive: 28.2 µM [inhibitor, partial curve, poor fit] |  |

— PubChem BioAssay AID588579 (National Center for Advancing Translational Sciences (NCATS), 2011)
